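48-hour exposure; five concentrations; linearly interpolated endpoints. At the GI50, growth is halved. The concentration for full growth arrest is given as TGI.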

This experiment has as its system NCI-H322M lung. The experiment is described as follows: NCI anticancer screen, dose series, 48 h.

`O=C(N/N=C/c1ccco1)c1[nH]c2ccc(Br)cc2c1-c1ccccc1`: the GI50 was 1.2 µM and the TGI came to 24.4 µM.

The values above are taken from PubChem BioAssay (NCI).
